# The supplement of paper PMC8728848
# The other results are listed elsewhere or left out.
# What was measured:
# Experiment in all cases: glycan array binding signal (z-score within array); higher = stronger binding
# Conditions in all cases: glycan notation: IUPAC condensed, linker removed
# [1] = target: GlcNAc(b1-6)Gal(b1-4)GlcNAc
# How it was run: (§1)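 Arrays were curated from the Consortium for Functional Glycomics database, 3228 in total, and kept only where the protein sequence was available. Binding is expressed as a within-array Z-score. This score was averaged across arrays of the same protein sequence at different concentrations or buffers and across linkers, and negative values can be read as non-binding.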
# GlcNAc(b1-6)GalNAc = target: GlcNAc(b1-6)GalNAc
# How it was run: as §1
# GlcNAc3Prop(b1-4)GlcNAc = target: GlcNAc3Prop(b1-4)GlcNAc
# How it was run: as §1
# [2] = target: GlcNAc6S(b1-3)Gal(b1-4)GlcNAc
# How it was run: as §1
# Kdn(a2-3)Gal(b1-3)GalNAc = target: Kdn(a2-3)Gal(b1-3)GalNAc
# How it was run: as §1
# Kdn(a2-3)Gal(b1-3)GlcNAc = target: Kdn(a2-3)Gal(b1-3)GlcNAc
# How it was run: as §1
# Kdn(a2-3)Gal(b1-4)Glc = target: Kdn(a2-3)Gal(b1-4)Glc
# How it was run: as §1
# Kdn(a2-3)Gal(b1-4)GlcNAc = target: Kdn(a2-3)Gal(b1-4)GlcNAc
# How it was run: as §1
# [3] = target: Kdn(a2-3)Gal(b1-4)[Fuc(a1-3)]GlcNAc
# How it was run: as §1
# Kdn(a2-6)Gal(b1-4)GlcNAc = target: Kdn(a2-6)Gal(b1-4)GlcNAc
# How it was run: as §1
# [4] = target: Man(a1-2)Man(a1-2)Man(a1-3)Man
# How it was run: as §1
# [5] = target: Man(a1-2)Man(a1-2)Man(a1-6)[Man(a1-3)]Man
# How it was run: as §1
# Man(a1-2)Man(a1-3)Man = target: Man(a1-2)Man(a1-3)Man
# How it was run: as §1
# [6] = target: Man(a1-2)Man(a1-3)[Man(a1-2)Man(a1-6)]Man
# How it was run: as §1
# [7] = target: Man(a1-2)Man(a1-3)[Man(a1-2)Man(a1-6)]Man(a1-6)[Man(a1-2)Man(a1-2)Man(a1-3)]Man
# How it was run: as §1
# [8] = target: Man(a1-2)Man(a1-3)[Man(a1-2)Man(a1-6)]Man(a1-6)[Man(a1-2)Man(a1-2)Man(a1-3)]Man(b1-4)GlcNAc(b1-4)GlcNAc
# How it was run: as §1
# [9] = target: Man(a1-2)Man(a1-3)[Man(a1-6)]Man(a1-6)[Man(a1-2)Man(a1-3)]Man(b1-4)GlcNAc(b1-4)GlcNAc
# How it was run: as §1
# [10] = target: Man(a1-2)Man(a1-6)[Man(a1-3)]Man(a1-6)[Man(a1-2)Man(a1-2)Man(a1-3)]Man
# How it was run: as §1
# [11] = target: Man(a1-2)Man(a1-6)[Man(a1-3)]Man(a1-6)[Man(a1-2)Man(a1-2)Man(a1-3)]Man(b1-4)GlcNAc(b1-4)GlcNAc
# How it was run: as §1
# Man(a1-3)[Man(a1-6)]Man = target: Man(a1-3)[Man(a1-6)]Man
# How it was run: as §1
# [12] = target: Man(a1-3)[Man(a1-6)]Man(a1-6)[Man(a1-2)Man(a1-3)]Man(b1-4)GlcNAc(b1-4)GlcNAc
# How it was run: as §1
# [13] = target: Man(a1-3)[Man(a1-6)]Man(a1-6)[Man(a1-3)]Man
# How it was run: as §1
# [14] = target: Man(a1-3)[Man(a1-6)]Man(a1-6)[Man(a1-3)]Man(b1-4)GlcNAc(b1-4)GlcNAc
# How it was run: as §1
# [15] = target: Man(a1-3)[Man(a1-6)]Man(b1-4)GlcNAc(b1-4)GlcNAc
# How it was run: as §1
# Man(a1-6)Man = target: Man(a1-6)Man
# How it was run: as §1
# Man(b1-4)GlcNAc = target: Man(b1-4)GlcNAc
# How it was run: as §1
# Neu5Ac(a2-3)Gal = target: Neu5Ac(a2-3)Gal
# How it was run: as §1
# [16] = target: Neu5Ac(a2-3)Gal(b1-3)GalNAc
# How it was run: as §1
# [17] = target: Neu5Ac(a2-3)Gal(b1-3)GalNAc(b1-3)Gal(a1-4)Gal(b1-4)Glc
# How it was run: as §1
# [18] = target: Neu5Ac(a2-3)Gal(b1-3)GalNAc(b1-4)[Neu5Ac(a2-3)]Gal(b1-4)Glc
# How it was run: as §1
# [19] = target: Neu5Ac(a2-3)Gal(b1-3)GalNAc(b1-4)[Neu5Ac(a2-8)Neu5Ac(a2-3)]Gal(b1-4)Glc
# How it was run: as §1
# [20] = target: Neu5Ac(a2-3)Gal(b1-3)GalNAc6S
# How it was run: as §1
# [21] = target: Neu5Ac(a2-3)Gal(b1-3)GlcNAc
# How it was run: as §1
# [22] = target: Neu5Ac(a2-3)Gal(b1-3)GlcNAc(b1-2)Man(a1-3)[Neu5Ac(a2-3)Gal(b1-3)GlcNAc(b1-2)Man(a1-6)]Man(b1-4)GlcNAc(b1-4)GlcNAc
# How it was run: as §1
# [23] = target: Neu5Ac(a2-3)Gal(b1-3)GlcNAc(b1-3)Gal(b1-3)GlcNAc
# How it was run: as §1
# [24] = target: Neu5Ac(a2-3)Gal(b1-3)GlcNAc(b1-3)Gal(b1-4)GlcNAc
# How it was run: as §1
# [25] = target: Neu5Ac(a2-3)Gal(b1-3)GlcNAc(b1-3)GalNAc
# How it was run: as §1
# [26] = target: Neu5Ac(a2-3)Gal(b1-3)GlcNAc6S
# How it was run: as §1
# [27] = target: Neu5Ac(a2-3)Gal(b1-3)[Fuc(a1-4)]GlcNAc
# How it was run: as §1
# [28] = target: Neu5Ac(a2-3)Gal(b1-3)[Fuc(a1-4)]GlcNAc(b1-3)Gal(b1-3)[Fuc(a1-4)]GlcNAc
# How it was run: as §1
# [29] = target: Neu5Ac(a2-3)Gal(b1-3)[Fuc(a1-4)]GlcNAc(b1-3)Gal(b1-4)[Fuc(a1-3)]GlcNAc
# How it was run: as §1
# [30] = target: Neu5Ac(a2-3)Gal(b1-3)[Neu5Ac(a2-3)Gal(b1-4)]GlcNAc
# How it was run: as §1
# [31] = target: Neu5Ac(a2-3)Gal(b1-3)[Neu5Ac(a2-6)]GalNAc
# How it was run: as §1
# Neu5Ac(a2-3)Gal(b1-4)Glc = target: Neu5Ac(a2-3)Gal(b1-4)Glc
# How it was run: as §1
# [32] = target: Neu5Ac(a2-3)Gal(b1-4)GlcNAc
# How it was run: as §1
binder,measurement,setting,value
"Eosinophil cationic protein (ECP) (Homo sapiens), P12724 (protein) MVPKLFTSQICLLLLLGLMGVEGSLHARPPQFTRAQWFAIQHISLNPPRCTIAMRAINNYRWRCKNQNTFLRTTFANVVNVCGNQSIRCPHNRTLNNCHRSRFRVPLLHCDLINPGAQNISNCTYADRPGRRFYVVACDNRDPRDSPRYPVVPVHLDTTI",glycan array binding signal (z-score),[1],0.126
same,glycan array binding signal (z-score),GlcNAc(b1-6)GalNAc,-0.344
same,glycan array binding signal (z-score),GlcNAc3Prop(b1-4)GlcNAc,-0.299
same,glycan array binding signal (z-score),[2],-0.39
same,glycan array binding signal (z-score),Kdn(a2-3)Gal(b1-3)GalNAc,0.204
same,glycan array binding signal (z-score),Kdn(a2-3)Gal(b1-3)GlcNAc,-0.093
same,glycan array binding signal (z-score),Kdn(a2-3)Gal(b1-4)Glc,0.085
same,glycan array binding signal (z-score),Kdn(a2-3)Gal(b1-4)GlcNAc,0.092
same,glycan array binding signal (z-score),[3],0.062
same,glycan array binding signal (z-score),Kdn(a2-6)Gal(b1-4)GlcNAc,-0.319
same,glycan array binding signal (z-score),[4],-0.361
same,glycan array binding signal (z-score),[5],-0.321
same,glycan array binding signal (z-score),Man(a1-2)Man(a1-3)Man,-0.065
same,glycan array binding signal (z-score),[6],-0.495
same,glycan array binding signal (z-score),[7],-0.174
same,glycan array binding signal (z-score),[8],-0.101
same,glycan array binding signal (z-score),[9],0.001
same,glycan array binding signal (z-score),[10],-0.536
same,glycan array binding signal (z-score),[11],0.498
same,glycan array binding signal (z-score),Man(a1-3)[Man(a1-6)]Man,0.316
same,glycan array binding signal (z-score),[12],0.25
same,glycan array binding signal (z-score),[13],-0.195
same,glycan array binding signal (z-score),[14],-0.247
same,glycan array binding signal (z-score),[15],-0.299
same,glycan array binding signal (z-score),Man(a1-6)Man,0.134
same,glycan array binding signal (z-score),Man(b1-4)GlcNAc,-0.235
same,glycan array binding signal (z-score),Neu5Ac(a2-3)Gal,-0.232
same,glycan array binding signal (z-score),[16],-0.31
same,glycan array binding signal (z-score),[17],0.087
same,glycan array binding signal (z-score),[18],-0.102
same,glycan array binding signal (z-score),[19],-0.122
same,glycan array binding signal (z-score),[20],0.233
same,glycan array binding signal (z-score),[21],0.009
same,glycan array binding signal (z-score),[22],-0.487
same,glycan array binding signal (z-score),[23],0.178
same,glycan array binding signal (z-score),[24],-0.221
same,glycan array binding signal (z-score),[25],-0.26
same,glycan array binding signal (z-score),[26],-0.054
same,glycan array binding signal (z-score),[27],-0.048
same,glycan array binding signal (z-score),[28],-0.729
same,glycan array binding signal (z-score),[29],1.1
same,glycan array binding signal (z-score),[30],-0.033
same,glycan array binding signal (z-score),[31],-0.097
same,glycan array binding signal (z-score),Neu5Ac(a2-3)Gal(b1-4)Glc,-0.018
same,glycan array binding signal (z-score),[32],-0.314
